# Laboratory results reported in the supplement of paper PMC8728848.
# The list shows a part of the results.
# B1: mLPHN-1 (Mus musculus), Q80TR1 (protein)
# chain: MARLAAALWSLCVTTVLVTSATQGLSRAGLPFGLMRRELACEGYPIELRCPGSDVIMVENANYGRTDDKICDADPFQMENVQCYLPDAFKIMSQRCNNRTQCVVVAGSDAFPDPCPGTYKYLEVQYDCVPYIFVCPGTLQKVLEPTSTHESEHQSGAWCKDPLQAGDRIYVMPWIPYRTDTLTEYASWEDYVAARHTTTYRLPNRVDGTGFVVYDGAVFYNKERTRNIVKYDLRTRIKSGETVINTANYHDTSPYRWGGKTDIDLAVDENGLWVIYATEGNNGRLVVSQLNPYTLRFEGTWETGYDKRSASNAFMVCGVLYVLRSVYVDDDSEAAGNRVDYAFNTNANREEPVSLAFPNPYQFVSSVDYNPRDNQLYVWNNYFVVRYSLEFGPPDPSAGPATSPPLSTTTTARPTPLTSTASPAATTPLRRAPLTTHPVGAINQLGPDLPPATAPAPSTRRPPAPNLHVSPELFCEPREVRRVQWPATQQGMLVERPCPKGTRGIASFQCLPALGLWNPRGPDLSNCTSPWVNQVAQKIKSGENAANIASELARHTRGSIYAGDVSSSVKLMEQLLDILDAQLQALRPIERESAGKNYNKMHKRERTCKDYIKAVVETVDNLLRPEALESWKDMNATEQVHTATMLLDVLEEGAFLLADNVREPARFLAAKQNVVLEVTVLNTEGQVQELVFPQEYPSENSIQLSANTIKQNSRNGVVKVVFILYNNLGLFLSTENATVKLAGEAGTGGPGGASLVVNSQVIAASINKESSRVFLMDPVIFTVAHLEAKNHFNANCSFWNYSERSMLGYWSTQGCRLVESNKTHTTCACSHLTNFAVLMAHREIYQGRINELLLSVITWVGIVISLVCLAICISTFCFLRGLQTDRNTIHKNLCINLFLAELLFLVGIDKTQYEVACPIFAGLLHYFFLAAFSWLCLEGVHLYLLLVEVFESEYSRTKYYYLGGYCFPALVVGIAAAIDYRSYGTEKACWLRVDNYFIWSFIGPVSFVIVVNLVFLMVTLHKMIRSSSVLKPDSSRLDNIKSWALGAIALLFLLGLTWAFGLLFINKESVVMAYLFTTFNAFQGVFIFVFHCALQKKVHKEYSKCLRHSYCCIRSPPGGTHGSLKTSAMRSNTRYYTGTQSRIRRMWNDTVRKQTESSFMAGDINSTPTLNRGTMGNHLLTNPVLQPRGGTSPYNTLIAESVGFNPSSPPVFNSPGSYREPKHPLGGREACGMDTLPLNGNFNNSYSLRSGDFPPGDGGPEPPRGRNLADAAAFEKMIISELVHNNLRGASGGAKGPPPEPPVPPVPGVSEDEAGGPGSADRAEIELLYKALEEPLLLPRAQSVLYQSDLDESESCTAEDGATSRPLSSPPGRDSLYASGANLRDSPSYPDSSPEGPNEALPPPPPAPPGPPEIYYTSRPPALVARNPLQGYYQVRRPSHEGYLAAPSLEGPGPDGDGQMQLVTSL
# Legend:
# Experiment in all cases: glycan array binding signal (z-score within array); higher = stronger binding
# Details in all cases: glycan notation: IUPAC condensed, linker removed
# Fuc(a1-2)Gal = target: Fuc(a1-2)Gal
# Procedure, shortened: (§1)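 Glycan array data came from 3228 arrays in the Consortium for Functional Glycomics database, and only arrays with an available protein sequence were kept. Glycan names were put into IUPAC-condensed notation, and columns mapping to the same glycan were averaged. The binding signal is a within-array Z-score, averaged across arrays of one protein sequence run at different concentrations or buffers and across linkers. A negative Z-score can be read as non-binding.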
# Fuc(a1-2)Gal(b1-3)GalNAc = target: Fuc(a1-2)Gal(b1-3)GalNAc
# Procedure, shortened: as §1
# [1] = target: Fuc(a1-2)Gal(b1-3)GalNAc(b1-3)Gal
# Procedure, shortened: as §1
# [2] = target: Fuc(a1-2)Gal(b1-3)GalNAc(b1-3)Gal(a1-4)Gal(b1-4)Glc
# Procedure, shortened: as §1
# [3] = target: Fuc(a1-2)Gal(b1-3)GalNAc(b1-4)[Neu5Ac(a2-3)]Gal(b1-4)Glc
# Procedure, shortened: as §1
# Fuc(a1-2)Gal(b1-3)GlcNAc = target: Fuc(a1-2)Gal(b1-3)GlcNAc
# Procedure, shortened: as §1
# [4] = target: Fuc(a1-2)Gal(b1-3)GlcNAc(b1-3)Gal(b1-4)Glc
# Procedure, shortened: as §1
# [5] = target: Fuc(a1-2)Gal(b1-3)[Fuc(a1-4)]GlcNAc
# Procedure, shortened: as §1
# Fuc(a1-2)Gal(b1-4)Glc = target: Fuc(a1-2)Gal(b1-4)Glc
# Procedure, shortened: as §1
# Fuc(a1-2)Gal(b1-4)Glc6S = target: Fuc(a1-2)Gal(b1-4)Glc6S
# Procedure, shortened: as §1
# Fuc(a1-2)Gal(b1-4)GlcNAc = target: Fuc(a1-2)Gal(b1-4)GlcNAc
# Procedure, shortened: as §1
# [6] = target: Fuc(a1-2)Gal(b1-4)GlcNAc(b1-3)Gal(b1-4)GlcNAc
# Procedure, shortened: as §1
# [7] = target: Fuc(a1-2)Gal(b1-4)GlcNAc(b1-3)Gal(b1-4)GlcNAc(b1-3)Gal(b1-4)GlcNAc
# Procedure, shortened: as §1
# [8] = target: Fuc(a1-2)Gal(b1-4)GlcNAc6S
# Procedure, shortened: as §1
# [9] = target: Fuc(a1-2)Gal(b1-4)[Fuc(a1-3)]GlcNAc
# Procedure, shortened: as §1
# [10] = target: Fuc(a1-2)Gal(b1-4)[Fuc(a1-3)]GlcNAc(b1-3)Gal(b1-4)[Fuc(a1-3)]GlcNAc
# Procedure, shortened: as §1
# [11] = target: Fuc(a1-2)Gal(b1-4)[Fuc(a1-3)]GlcNAc(b1-3)Gal(b1-4)[Fuc(a1-3)]GlcNAc(b1-3)Gal(b1-4)[Fuc(a1-3)]GlcNAc
# Procedure, shortened: as §1
# Fuc(a1-2)Gal6S(b1-4)Glc = target: Fuc(a1-2)Gal6S(b1-4)Glc
# Procedure, shortened: as §1
# [12] = target: Fuc(a1-2)Gal6S(b1-4)Glc6S
# Procedure, shortened: as §1
# [13] = target: Fuc(a1-2)Gal6S(b1-4)GlcNAc
# Procedure, shortened: as §1
# Fuc(a1-2)[Gal(a1-3)]Gal = target: Fuc(a1-2)[Gal(a1-3)]Gal
# Procedure, shortened: as §1
# [14] = target: Fuc(a1-2)[Gal(a1-3)]Gal(b1-3)GlcNAc
# Procedure, shortened: as §1
# [15] = target: Fuc(a1-2)[Gal(a1-3)]Gal(b1-4)Glc
# Procedure, shortened: as §1
# [16] = target: Fuc(a1-2)[Gal(a1-3)]Gal(b1-4)GlcNAc
# Procedure, shortened: as §1
# [17] = target: Fuc(a1-2)[Gal(a1-3)]Gal(b1-4)[Fuc(a1-3)]GlcNAc
# Procedure, shortened: as §1
# [18] = target: Fuc(a1-2)[Gal(a1-4)]Gal(b1-4)GlcNAc
# Procedure, shortened: as §1
# [19] = target: Fuc(a1-2)[GalNAc(a1-3)]Gal
# Procedure, shortened: as §1
# [20] = target: Fuc(a1-2)[GalNAc(a1-3)]Gal(b1-3)GlcNAc
# Procedure, shortened: as §1
# [21] = target: Fuc(a1-2)[GalNAc(a1-3)]Gal(b1-4)Glc
# Procedure, shortened: as §1
# [22] = target: Fuc(a1-2)[GalNAc(a1-3)]Gal(b1-4)GlcNAc
# Procedure, shortened: as §1
# [23] = target: Fuc(a1-2)[GalNAc(a1-3)]Gal(b1-4)[Fuc(a1-3)]GlcNAc
# Procedure, shortened: as §1
# [24] = target: Fuc(a1-2)[GalNAc(a1-4)]Gal(b1-4)GlcNAc
# Procedure, shortened: as §1
# [25] = target: Fuc(a1-2)[GalNAc(b1-3)]Gal
# Procedure, shortened: as §1
# Fuc(a1-3)GlcNAc = target: Fuc(a1-3)GlcNAc
# Procedure, shortened: as §1
# [26] = target: Fuc(a1-3)[Gal(b1-4)]Glc6S
# Procedure, shortened: as §1
# [27] = target: Fuc(a1-3)[Gal(b1-4)]GlcNAc
# Procedure, shortened: as §1
# [28] = target: Fuc(a1-3)[Gal(b1-4)]GlcNAc(b1-2)Man(a1-3)[Fuc(a1-3)[Gal(b1-4)]GlcNAc(b1-2)Man(a1-6)]Man(b1-4)GlcNAc(b1-4)GlcNAc
# Procedure, shortened: as §1
# [29] = target: Fuc(a1-3)[Gal(b1-4)]GlcNAc(b1-2)Man(a1-6)[Gal(b1-4)GlcNAc(b1-2)Man(a1-3)]Man(b1-4)GlcNAc(b1-4)GlcNAc
# Procedure, shortened: as §1
# [30] = target: Fuc(a1-3)[Gal(b1-4)]GlcNAc(b1-3)Gal(b1-3)[Fuc(a1-4)]GlcNAc
# Procedure, shortened: as §1
# [31] = target: Fuc(a1-3)[Gal(b1-4)]GlcNAc(b1-4)Gal(b1-4)[Fuc(a1-3)]GlcNAc
# Procedure, shortened: as §1
# [32] = target: Fuc(a1-3)[Gal(b1-4)]GlcNAc(b1-4)Gal(b1-4)[Fuc(a1-3)]GlcNAc(b1-4)Gal(b1-4)[Fuc(a1-3)]GlcNAc
# Procedure, shortened: as §1
# [33] = target: Fuc(a1-3)[Gal(b1-4)]GlcNAc6S
# Procedure, shortened: as §1
# [34] = target: Fuc(a1-3)[Gal3S(b1-4)]Glc6S
# Procedure, shortened: as §1
# [35] = target: Fuc(a1-3)[Gal3S(b1-4)]GlcNAc
# Procedure, shortened: as §1
# [36] = target: Fuc(a1-3)[Gal3S(b1-4)]GlcNAc6S
# Procedure, shortened: as §1
binder,measurement,setting,value
B1,glycan array binding signal (z-score),Fuc(a1-2)Gal,-0.017
same,glycan array binding signal (z-score),Fuc(a1-2)Gal(b1-3)GalNAc,-0.304
same,glycan array binding signal (z-score),[1],0.031
same,glycan array binding signal (z-score),[2],0.016
same,glycan array binding signal (z-score),[3],-0.293
same,glycan array binding signal (z-score),Fuc(a1-2)Gal(b1-3)GlcNAc,-0.266
same,glycan array binding signal (z-score),[4],0.213
same,glycan array binding signal (z-score),[5],-0.021
same,glycan array binding signal (z-score),Fuc(a1-2)Gal(b1-4)Glc,-0.185
same,glycan array binding signal (z-score),Fuc(a1-2)Gal(b1-4)Glc6S,-0.237
same,glycan array binding signal (z-score),Fuc(a1-2)Gal(b1-4)GlcNAc,-0.129
same,glycan array binding signal (z-score),[6],-0.284
same,glycan array binding signal (z-score),[7],-0.028
same,glycan array binding signal (z-score),[8],-0.079
same,glycan array binding signal (z-score),[9],-0.195
same,glycan array binding signal (z-score),[10],-0.196
same,glycan array binding signal (z-score),[11],-0.029
same,glycan array binding signal (z-score),Fuc(a1-2)Gal6S(b1-4)Glc,-0.249
same,glycan array binding signal (z-score),[12],0.13
same,glycan array binding signal (z-score),[13],0.101
same,glycan array binding signal (z-score),Fuc(a1-2)[Gal(a1-3)]Gal,0.081
same,glycan array binding signal (z-score),[14],15.8
same,glycan array binding signal (z-score),[15],-0.219
same,glycan array binding signal (z-score),[16],-0.339
same,glycan array binding signal (z-score),[17],0.14
same,glycan array binding signal (z-score),[18],0.179
same,glycan array binding signal (z-score),[19],0.943
same,glycan array binding signal (z-score),[20],0.117
same,glycan array binding signal (z-score),[21],-0.468
same,glycan array binding signal (z-score),[22],0.014
same,glycan array binding signal (z-score),[23],-0.095
same,glycan array binding signal (z-score),[24],0.22
same,glycan array binding signal (z-score),[25],0.576
same,glycan array binding signal (z-score),Fuc(a1-3)GlcNAc,0.258
same,glycan array binding signal (z-score),[26],-0.349
same,glycan array binding signal (z-score),[27],-0.065
same,glycan array binding signal (z-score),[28],-0.372
same,glycan array binding signal (z-score),[29],-0.18
same,glycan array binding signal (z-score),[30],-0.297
same,glycan array binding signal (z-score),[31],-0.362
same,glycan array binding signal (z-score),[32],-0.395
same,glycan array binding signal (z-score),[33],-0.045
same,glycan array binding signal (z-score),[34],-0.232
same,glycan array binding signal (z-score),[35],0.291
same,glycan array binding signal (z-score),[36],-0.146
